Assay results published in PubChem BioAssay AID504845 (National Center for Advancing Translational Sciences (NCATS), 2011).
Screen size: about 390,000 compounds; about 150 (0.038%) were called active. This list was built around the results that the source calls inconclusive (neither active nor inactive); the mix of calls is not that of the screen. Calls come from the whole dose curve; as a rule, active = well fitted inhibition curve with a large enough effect; inconclusive = small, poorly fitted or top-dose-only effect; inactive = no such curve, though single readings can be large or run the other way. A potency beside an inconclusive call is a rough fit, not a confirmed value.

Molecular target: Regulator of G-protein signaling 4 (Homo sapiens) (UniProt P49798)
Sequence of UniProt P49798 (P49798 whole entry, looked up): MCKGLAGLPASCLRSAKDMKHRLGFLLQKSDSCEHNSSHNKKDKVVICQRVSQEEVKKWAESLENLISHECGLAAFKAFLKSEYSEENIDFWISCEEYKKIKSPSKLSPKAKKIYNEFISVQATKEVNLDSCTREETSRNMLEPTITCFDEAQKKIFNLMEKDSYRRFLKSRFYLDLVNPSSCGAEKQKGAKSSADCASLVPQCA
Assay: Inhibitors of Regulator of G Protein Signaling (RGS) 4: qHTS; note: nearly all actives have a fitted effect of over 75% in size
Conditions: Transcreener GDP fluorescence polarization, RGS4-accelerated GTP hydrolysis; series mostly up to 114 µM; activity change, negative = inhibition: at the top concentration
How it was run: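 MLSMR compounds (23 nl, pin-transferred) preincubated 10 min at room temperature with a 500nM (2x) first reagent, then RGS4 at 900nM (2x) plus Transcreener GDP mix added; fluorescence polarization (620/688 nm) read before and after 90 min at 30 °C.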
% is set by controls: 0 for no effect and ±100 for the full control effect; potency is the fitted concentration of half-maximal effect; tags give direction and shape of the fitted curve.

| SMILES | Potency | activity change, negative = inhibition |
| --- | --- | --- |
| Cc1ccccc1CSCCNC(=O)CSCc1ccc([N+](=O)[O-])cc1 | inconclusive: 89.1 µM [inhibitor, single point] |  |
| O=c1cc(O)n(-c2ccc(Cl)cc2)c(=S)[nH]1 | inconclusive: 44.7 µM [inhibitor, partial curve, poor fit] |  |
| O=[N+]([O-])c1ccc(C2=Nn3c(Cn4nnc5ccccc54)nnc3SC2)cc1 | inconclusive: 79.4 µM [inhibitor, partial curve, poor fit] |  |
| N#Cc1c(NCCCO)nc(-c2ccco2)c2c1CCCC2 | inconclusive: 89.1 µM [inhibitor, single point] |  |
| C=CCn1c(SCC(=O)c2ccc(CNC(C)=O)o2)nc2ccccc2c1=O | inconclusive: 79.4 µM [inhibitor, single point] |  |
| Cn1c(NCC(O)c2ccccc2)nc2c1c(=O)n(Cc1ccc(Cl)c(Cl)c1)c(=O)n2C (stereo unspecified) | inconclusive: 89.1 µM [inhibitor, single point] |  |
| Nc1nc(C(=O)N2CCOCC2)nn1S(=O)(=O)c1ccc(Cl)cc1 | inconclusive: 50.1 µM [inhibitor, partial curve, poor fit] |  |
| CN1CCN(C(=O)CCN2C(=O)/C(=C\c3ccc(Cl)cc3Cl)SC2=S)CC1 | inconclusive: 50.1 µM [inhibitor, partial curve, poor fit] |  |
| Cc1ccc(C(=O)NCCCc2ccccc2)c(C)c1 | inconclusive: 100 µM [inhibitor, partial curve, poor fit] |  |
| O=C(c1ccccc1)c1ccc2nc(-c3ccco3)c(-c3ccco3)nc2c1 | inconclusive: 20 µM [inhibitor, full curve, poor fit] |  |
| Oc1ccc(/C=N/N2CCCCC2)cc1O | inconclusive: 89.1 µM [inhibitor, single point] |  |
| O=C(NCSc1ccnc(SCNC(=O)c2ccc(F)cc2)n1)c1ccc(F)cc1 | inconclusive: 79.4 µM [inhibitor, partial curve, poor fit] |  |
| CN(C)/C=C(\C=O)c1ncc(C(F)(F)F)cc1Cl | inconclusive: 79.4 µM [inhibitor, single point] |  |
| CCn1c(=NC(=O)CSC(C)=O)sc2cc(F)ccc21 | inconclusive: 79.4 µM [inhibitor, single point] |  |
| O=C1c2[nH]nc(-c3ccccc3O)c2C(c2cccc(Cl)c2)N1CC1CCCO1 (stereo unspecified) | inconclusive: 100 µM [inhibitor, single point] |  |
| Cc1cc(C)c2c(c1)[C@@H]1C=CC[C@@H]1[C@H](c1ccc(S(=O)(=O)N3CCOCC3)cc1)N2 | inconclusive: 50.1 µM [inhibitor, partial curve, poor fit] |  |
| Cc1nc2c(=O)[nH]c(=S)n(C)c2nc1C | inconclusive: 79.4 µM [inhibitor, partial curve, poor fit] |  |
| CS(=O)c1ccccc1-c1nc(-c2cccc(Cl)c2)no1 (stereo unspecified) | inconclusive: 50.1 µM [inhibitor, partial curve, poor fit] |  |
| CCn1c(=O)c2cc(C(=O)N(C)c3cc(C)ccc3C)sc2c2ccccc21 |  | inactive: -8.14% |
| Cc1ccccc1-c1noc(N)c1C#N |  | inactive: -23.2% |
| O=C(CCSCc1ccccc1F)N1CCN(c2ccc(F)cc2)CC1 |  | inactive: -2.43% |
| C=CCNc1nc(Cl)nc(Nc2ccccc2)n1 |  | inactive: 7.47% |

| SMILES | Potency | activity change, negative = inhibition |
| --- | --- | --- |
| CCN(CC)c1ccc(/C=N/NC(=O)CNC(=O)c2ccccn2)cc1 |  | inactive: -7.53% |
| CCCSc1nsc(NC(=O)CC)n1 |  | inactive: -3.1% |
| Cc1ccc(OCC(=O)NCCc2c[nH]c3ccccc23)cc1 |  | inactive: -17.7% |
| CN(C)S(=O)(=O)c1ccc(-c2csc(N/N=C/c3ccc(O)cc3)n2)cc1 |  | inactive: -22.8% |
| c1ccc(Cn2nnnc2C(c2cccs2)N2CCc3ccccc3C2)cc1 (stereo unspecified) |  | inactive: 2.22% |
| COc1ccc(CCNC(=O)CCCOc2ccc(C)cc2)cc1OC | inconclusive: 20 µM [inhibitor, full curve, poor fit] |  |
| CCOC(=O)CCC(NC(=O)CCC(=O)NC(CCC(=O)OCC)C(=O)OCC)C(=O)OCC (stereo unspecified) |  | inactive: -1.83% |
| CC(=O)c1cccc(NC(=S)N2CCN(S(=O)(=O)c3ccccc3)CC2)c1 | inconclusive: 50.1 µM [inhibitor, partial curve, poor fit] |  |
| Cc1cc(C)nc(NNS(=O)(=O)c2ccc(F)c(Cl)c2)n1 | inconclusive: 50.1 µM [inhibitor, partial curve, poor fit] |  |
| COc1cc(CC(=O)OCC(=O)Nc2ccc(S(=O)(=O)N3CCCC3)cc2)cc(OC)c1OC | inconclusive: 70.8 µM [inhibitor, single point] |  |
| Brc1ccccc1C1Nc2cccc3cccc(c23)N1 | inconclusive: 50.1 µM [inhibitor, partial curve, poor fit] |  |
| O=S(Cc1ccc(Cl)cc1)CC(O)(c1ccccc1)c1ccccc1 (stereo unspecified) |  | inactive: 10.9% |
| CCCOc1ccc(C2CC(=O)NC2=O)cc1 (stereo unspecified) | inconclusive: 44.7 µM [inhibitor, partial curve, poor fit] |  |
| COc1ccccc1OCC(=O)Nc1cc(S(=O)(=O)N2CCOCC2)ccc1N1CCCCC1 | inconclusive: 50.1 µM [inhibitor, partial curve, poor fit] |  |
| N=C1C(c2nc3ccccc3s2)=C(O)CN1NC(=O)c1ccccc1[N+](=O)[O-] | inconclusive: 50.1 µM [inhibitor, partial curve, poor fit] |  |
| O=C(NCCc1ccccc1)c1ccc2nc(-c3ccco3)c(-c3ccco3)nc2c1 | inconclusive: 50.1 µM [inhibitor, partial curve, poor fit] |  |
| CC(C)(C)c1cc(C(=S)N2CCN(CCO)CC2)cc(C(C)(C)C)c1O | inconclusive: 70.8 µM [inhibitor, partial curve, poor fit] |  |
| COc1cccc(C=NNC(=S)NN=Cc2cccc(OC)c2OC)c1OC | inconclusive: 79.4 µM [inhibitor, partial curve, poor fit] |  |
| COc1ccc(C2C3=C(CC(C)(C)CC3=O)N(C)C3=C2C(=O)CC(C)(C)C3)cc1OC | inconclusive: 56.2 µM [inhibitor, partial curve, poor fit] |  |
| CCC(=O)N1CCc2cc(Br)cc(S(=O)(=O)N3CCCC(C(=O)NCc4cccc(OC)c4)C3)c21 (stereo unspecified) |  | inactive: 14.1% |
| CC(C)(C)OC(=O)NCCCC[C@@H](C(=O)NCCCCCCCCCCC(=O)N1CCN(C(=O)OC(C)(C)C)CC1)n1cc(CCO)nn1 |  | inactive: -8.3% |
| COCc1ccc(CN2CCc3c([nH]c4ccccc34)C2CC(C)C)o1 (stereo unspecified) | inconclusive: 89.1 µM [inhibitor, single point] |  |

| SMILES | Potency | activity change, negative = inhibition |
| --- | --- | --- |
| Nc1c(C(=O)Nc2ccc(Cl)c(C(F)(F)F)c2)sc2nc(-c3ccncc3)ccc12 |  | inactive: 2.94% |
| O=C(NCCCn1ccnc1)/C(=C\c1cccnc1)NC(=O)c1ccccc1F | inconclusive: 89.1 µM [inhibitor, partial curve, poor fit] |  |
| C=CCN(CC=C)C(=O)c1ccc(OC2CCN(Cc3ccccn3)CC2)cc1 | inconclusive: 79.4 µM [inhibitor, single point] |  |
| O=C(Nc1cc(F)ccc1F)N1CCN(c2ccnc3cc(Cl)ccc23)CC1 | inconclusive: 79.4 µM [inhibitor, single point] |  |
| CN(C)c1ccc(-c2n[nH]c(=S)n2-c2ccccc2)cc1 | inconclusive: 89.1 µM [inhibitor, single point] |  |
| Cc1ccc(NC(=S)NCc2ccccc2)cc1[N+](=O)[O-] | inconclusive: 89.1 µM [inhibitor, single point] |  |
| COCc1ccc(C(=O)N2CCCC(N(C)Cc3ccccc3)C2)s1 (stereo unspecified) |  | inactive: -10.5% |
| Cn1c(=O)c(N)c2c3c(c(Br)ccc31)C(=O)c1ccccc1-2 |  | inactive: -25.4% |
| O=C(O)CCC/C=C\C[C@@H]1[C@@H](/C=C/[C@@H](O)COc2cccc(Cl)c2)[C@H](O)C[C@@H]1O | inconclusive: 89.1 µM [inhibitor, single point] |  |
| Cc1nn(-c2ccc(N3CCCCC3)nn2)c(C)c1CCC(=O)Nc1ccc(F)cc1 |  | inactive: -24.8% [at 56.9 µM] |
| O=S(=O)(/C(=C/c1ccc(C(F)(F)F)cc1)c1nc2ccccc2[nH]1)c1ccccc1 | inconclusive: 28.2 µM [inhibitor, full curve, poor fit] |  |
| Fc1ccc(-n2cc(CNCCc3ccncc3)c(-c3ccccc3Cl)n2)cc1 |  | inactive: -4.67% |
| CCc1ccc(-n2c(=O)c3c(C)c(C(=O)N(C)C)sc3n(Cc3cccc(C)c3)c2=O)cc1 |  | inactive: 1.03% |
| C=CCNc1nc(-c2cccs2)c(CC(=O)O)s1 | inconclusive: 79.4 µM [inhibitor, partial curve, poor fit] |  |
| CS(=O)(=O)N1CCN(c2ccc(C(=O)NC34CC5CC(CC(C5)C3)C4)cc2[N+](=O)[O-])CC1 | inconclusive: 44.7 µM [inhibitor, partial curve, poor fit] |  |
| O=C(CSc1n[nH]c(-c2cccnc2)n1)OC1CCCCC1 | inconclusive: 31.6 µM [inhibitor, full curve, poor fit] |  |
| CCOc1ccc(C(=O)NCCN2CCCC2)cc1 |  | inactive: -31.9% |
| CC(=O)N1CCN(C(=S)c2ccc(-c3ccc(Cl)cc3)o2)CC1 | inconclusive: 44.7 µM [inhibitor, partial curve, poor fit] |  |
| O=S(=O)(/C=C/c1ccccc1)NC1CCCCCC1 | inconclusive: 79.4 µM [inhibitor, partial curve, poor fit] |  |
| CC(=O)c1cccc(NC(=O)CCc2c(C)nc3c(-c4ccc(F)cc4)c(C)nn3c2C)c1 |  | inactive: 4.03% |
| COc1cc(-c2nnc(SCC(=O)N3CCCC3)o2)cc(OC)c1OC | inconclusive: 89.1 µM [inhibitor, single point] |  |
| COc1ccc(NC(=O)NC2(C(=O)N3CCCCCC3)CCCCC2)cc1 | inconclusive: 89.1 µM [inhibitor, single point] |  |
